From patent publication US20260217837A1, “FGFR3 BINDING MOLECULES AND METHODS OF USE THEREOF” (Regeneron Pharmaceuticals, Inc., priority 2023, published 2026)

Legend:
FGFR3 S249C = target: T1, FGFR3 S249C (Homo sapiens, UniProt P22607, S249C); assay: Western blot, FGFR3 receptor dimerization in UMUC14 cells; type: cell-based; conditions: 33 nM, 3 hours, non-reducing SDS-PAGE
T1 construct: UMUC14 cells, which endogenously express the FGFR3 S249C mutation; host or cells: UMUC14
Protocol: For receptor dimerization assessments, UMUC14 bladder cancer cells or BaF3 cells were seeded in 6 well tissue culture plate (Corning) in complete medium (MEM medium with 10% FBS, 1% non-essential amino acids, Glutamine, Pen/Strep) and cultured overnight at 37° C. with 5% CO2. Cells were then serum starved overnight in starvation medium (MEM medium with 0.5% FBS, Pen/Strep) followed by antibody treatment for 3 hours at indicated concentrations. Equal amounts of cell lysates were analyzed by either reducing or non-reducing SDS-PAGE. Membranes were blotted with anti-FGFR3 primary antibody (Santa Cruz) and developed with SuperSignal West Pico substrate (Pierce) and luminescence images were captured with a C300 imager (Azure Biosystems).
To gain insight into the mechanisms of antiproliferative activity of BiP063N2, effects of antibodies on FGFR3 receptor dimerization, degradation, and downstream signaling were evaluated by western blot as described in Section 8.1.5. UMUC14 cells, which endogenously express the FGFR3 S249C mutation, were treated with indicated antibodies at 33 nM for 3 hours. After treatment, FGFR3 monomers and disulfide-linked dimers were separated via a non-reducing SDS-polyacrylamide gel (FIG. 6A, top). The mobilities of the monomeric and dimeric FGFR3 are indicated.

FGFR3 [1] = target: T2, FGFR3 (Homo sapiens, UniProt P22607, S249C); assay: Western blot, FGFR3 receptor degradation in UMUC14 cells; type: cell-based; conditions: 33 nM, 16 hrs
T2 construct: UMUC14 cells, which endogenously express the FGFR3 S249C mutation; host or cells: UMUC14
Protocol: For receptor degradation assessments, cells were treated with 33 nM of a designated antibody for 16 hours. Cells were then washed with pre-chilled PBS and collected in lysis buffer containing protease inhibitors (Cell Signaling Technology). Equal amounts of cell lysate were loaded on either reducing or non-reducing SDS-PAGE for protein separation. PVDF membranes with transferred proteins were blocked in tris-buffered saline (TBS) containing 5% nonfat dry milk and 0.5% Tween 20 and incubated overnight with anti-FGFR3 primary antibody (Santa Cruz). Membranes were washed three times with TBST, incubated with HRP-conjugated goat anti-rabbit secondary antibody (Seracare), and developed with SuperSignal West chemiluminescent substrate (Thermo Scientific). Images were captured with a C300 imager (Azure Biosystems).
To assess the effect of antibody on receptor degradation, UMUC14 cells were treated with indicated antibodies at 33 nM for 16 hrs. Total FGFR3 receptor levels were analyzed by western blot.

human FGFR3c (hFGFR3c) = target: T3, human FGFR3c (hFGFR3c) (Homo sapiens, UniProt P22607); assay: Biacore binding to human FGFR3c; conditions: 25 C
T3 construct: biotinylated human or mouse FGFR3b-ecto.mmH, human FGFR3c-ecto.mmH or Fel-d 1.mmH; mmh (C)
T3 sequence (P22607 23-375 limits assumed): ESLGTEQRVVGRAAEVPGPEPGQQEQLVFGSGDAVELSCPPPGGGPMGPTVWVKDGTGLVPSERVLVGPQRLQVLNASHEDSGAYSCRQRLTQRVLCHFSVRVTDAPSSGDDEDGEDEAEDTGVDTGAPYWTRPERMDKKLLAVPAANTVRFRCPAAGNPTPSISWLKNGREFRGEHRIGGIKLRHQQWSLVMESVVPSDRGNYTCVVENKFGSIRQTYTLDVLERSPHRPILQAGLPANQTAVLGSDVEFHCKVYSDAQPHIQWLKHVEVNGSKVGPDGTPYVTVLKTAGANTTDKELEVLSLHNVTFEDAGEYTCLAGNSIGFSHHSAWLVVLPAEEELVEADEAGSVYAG
Protocol: Affinity and mechanism of action of binding of anti-FGFR3 antibodies to FGFR3 isoforms were determined by Biacore analysis. In brief, in-house generated monoclonal anti-human Fc antibody was immobilized on the surface of a CM-5 sensor chip. Different concentrations of FGFR3 antibodies were injected at 50 μL/min for 4 min and the assay was performed at 25° C. The mAb binding response was monitored and, for low affinity receptors, steady-state binding equilibrium was calculated. Kinetic association (ka) and dissociation (kd) rate constants were determined by processing and fitting the data to a 1:1 binding model using Scrubber 2.0 curve fitting software. Binding dissociation equilibrium constants (KD) and dissociative half-lives (t1/2) were calculated from the kinetic rate constants using the formula: KD (M)=kd/ka; and t1/2 (min)=(ln2/(60*kd). Some KD values were derived using the steady state equilibrium dissociation constant; When no KD values could be derived, it was marked as NB (no binding observed) or IC (inconclusive affinity determination due to low specific RU signal).

[2] = system: MAPK phosphorylation in BaF3 cells expressing Y375C hFGFR3b; assay: Western blot, FGF1/heparin induced MAPK phosphorylation in BaF3 Y375C hFGFR3b cells; type: cell-based; conditions: 100 nM antibody overnight, 100 nM FGF1 and 10 ug/ml heparin 15 min
Protocol: To evaluate receptor phosphorylation and downstream signaling, cells were serum starved overnight in the presence or absence of indicated antibodies followed by ligand (100 ng/ml human FGF1 and 10 μg/ml heparin) stimulation for 15 min at 37° C. Equal amounts of cell lysates were analyzed by SDS-PAGE. Blots were incubated with pMAPK, MAPK or actin antibodies followed by incubation with HRP secondary antibody. For FGFR3 phosphorylation, equal amounts of cell lysates were incubated with pY100 Sepharose beads overnight and non-specific binding was removed by washes with lysis buffer. Immunoprecipitated proteins were analyzed by reducing or non-reducing SDS-PAGE and blotted with FGFR3 antibody.

[3] = system: BaF3 cells expressing S248C hFGFR3b; assay: BaF3 cell viability, S248C hFGFR3b; type: cell-based; conditions: 1 nM FGF1 and 5 ug/ml heparin
Description: cDNA expressing FGFR3 mutants (S249C, S248C, Y375C, V555M, V555L, S249C+V555M, or S249C+V555L) were synthesized and cloned into pLVX Lenti-viral vector (Thermo Fisher). Viral particles were generated by lipofectamine transfection of LentiX 293T cells using Lenti-X packaging single shots following manufacturer's protocol (Clontech/Takara) and concentrated using Lenti-X concentrator and titer determined using Lenti-X p24 rapid titer kit (Clontech/Takara). BaF3 cells were transduced with virus at ~0.3 MOI. Expression of FGFR3 receptors was confirmed by FACS analysis and western blot.
For cell proliferation assays, engineered BaF3/hFGFR3 cells grown in complete medium were washed and plated in IL-3-free culture media±5 μg/ml heparin and 1 nM human FGF1. Cells were plated out at 1×10^5 cells/well into 96-well plates, followed by the addition of 1:3 serially diluted antibodies as indicated in figures. After addition of antibodies, cells were incubated at 37° C. for 72 h followed by the addition of CellTiter-Glo™ (Promega) reagent. The luminescent signal was detected by Envision plate reader (PerkinElmer). Data was analyzed using Prism software (GraphPad).
Next, cell viability was assessed using BaF3 cells expressing S248C hFGFR3b, cultured in a medium with 1 nM FGF1 and 5 μg/ml heparin in the absence (control) or presence of mAb063 or BiP063N2 as described in Section 8.1.4.

FGFR3 [4] = assay: Agonist activity of parental anti-FGFR3 antibodies (Table 1); type: cell-based; conditions: parental anti-FGFR3 antibody

T1 sequence (P22607 23-808 isoform P22607-2 S249C limits assumed): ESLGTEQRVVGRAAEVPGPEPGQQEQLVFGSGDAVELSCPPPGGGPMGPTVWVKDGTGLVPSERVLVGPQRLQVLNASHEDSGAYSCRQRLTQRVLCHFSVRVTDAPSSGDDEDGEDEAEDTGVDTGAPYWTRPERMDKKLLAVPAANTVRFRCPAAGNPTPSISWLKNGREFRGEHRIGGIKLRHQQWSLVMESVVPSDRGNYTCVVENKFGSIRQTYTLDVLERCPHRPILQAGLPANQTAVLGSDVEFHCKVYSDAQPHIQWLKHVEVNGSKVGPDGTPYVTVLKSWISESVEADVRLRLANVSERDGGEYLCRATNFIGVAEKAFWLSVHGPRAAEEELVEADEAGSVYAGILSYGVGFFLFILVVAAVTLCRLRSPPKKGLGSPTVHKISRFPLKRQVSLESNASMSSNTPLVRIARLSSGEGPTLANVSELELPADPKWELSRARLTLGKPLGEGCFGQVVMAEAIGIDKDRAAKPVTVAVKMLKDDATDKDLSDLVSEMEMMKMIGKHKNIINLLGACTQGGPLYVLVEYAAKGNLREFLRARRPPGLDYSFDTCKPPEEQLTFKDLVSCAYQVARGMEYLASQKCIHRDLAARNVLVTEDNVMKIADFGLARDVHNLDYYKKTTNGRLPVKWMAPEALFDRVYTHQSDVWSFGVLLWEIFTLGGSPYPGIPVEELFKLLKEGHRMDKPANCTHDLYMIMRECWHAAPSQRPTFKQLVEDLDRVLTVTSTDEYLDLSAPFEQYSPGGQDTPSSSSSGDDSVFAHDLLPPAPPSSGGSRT
T2 sequence (P22607 23-808 isoform P22607-2 S249C limits assumed): as above

B1: mAb063: parental anti-FGFR3 antibody of BiP063N2, inhibitory; anchor mAb (antibody)
heavy: QVQLQESGPGLVKPSETLSLTCTVSGDSINSYFWSWIRQLPGKELEWIGHIYSSGSTRYNPSLQSRVTISIDTSKNQFSLKLSSVTAADTAVYYCARGASAVDYWGQGTLVTVSSASTKGPSVFPLAPCSRSTSESTAALGCLVKDYFPEPVTVSWNSGALTSGVHTFPAVLQSSGLYSLSSVVTVPSSSLGTKTYTCNVDHKPSNTKVDKRV[human IgG4 Fc with S228P (EU numbers) cut from this listing]
light: EIVLTQSPGTLSLSPGERATLSCRTSQSISSGYLAWYQQKPGQAPRLLIYGASRRATGIPDRFSGSGSGTDFTLTISRLEPEDFVVYYCQQYGSSPYTFGQGTKLEIKRTVAAPSVFIFPPSDEQLKSGTASVVCLLNNFYPREAKVQWKVDNALQSGNSQESVTEQDSKDSTYSLSSTLTLSKADYEKHKVYACEVTHQGLSSPVTKSFNRGEC
- FGFR3 S249C receptor dimerization (FGFR3 S249C): potently inhibited receptor dimer formation
- FGFR3 receptor degradation (FGFR3 [1]): did not induce receptor degradation
- binding to monomeric human FGFR3c (human FGFR3c (hFGFR3c)): not detected
- pMAPK after FGF1/heparin stimulation, Y375C hFGFR3b [2]: small increase in pMAPK levels
- cell viability of BaF3 cells expressing S248C hFGFR3b [3]: diminished cell viability in a dose-dependent manner
- Agonist Activity (second figure of the cell, percent) (FGFR3 [4]): 16.1%
